Here are results for 84 variants from the RNAGym collection of RNA variant scans (doi:10.1073/pnas.2313332121).

First the molecules themselves.
B1: TPR 5TU (parent)
chain: GGAUCUUCUCGAUCUAACAAAAAAGACAAAUCUGCCACAAAGCUUGAGAGCAUCUUCGGAUGCAGAGGCGGCAGCCUUCGGUGGCGCGAUAGCGCCAACGUUCUCAACUAUGACACGCAAAACGCGUGCUCCGUUGAAUGGAGUUUAUCAUG

Variants at the background level are over-represented here.

The variants in the series derive from B1. The series can be described thus: polymerase ribozyme fitness, log enrichment relative to wild type (log ratio); higher = more active; in vitro selection for triplet polymerase activity. The method in brief:
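Each subunit of a heterodimeric triplet polymerase ribozyme was mutagenized into a library by PCR, transcribed, and subjected to one round of in vitro selection, run in triplicate. Libraries were annealed with a biotinylated primer, the partner subunit and triplets, incubated frozen at −7 °C, and extended constructs were gel-excised, captured on streptavidin beads and recovered by RT-PCR. Input and output libraries were sequenced on Illumina, keeping genotypes with ≥10 input reads and ≥1 read per output. Fitness is log base 2 of genotype enrichment divided by wild-type enrichment, from inverse-variance-weighted replicate averages.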
On to C35U U78A C103G A115G G124A A147G, for which the “polymerase ribozyme fitness (log ratio)” value was at most -4.2.

On to C35G G59A G62C G88U, for which the “polymerase ribozyme fitness (log ratio)” value is at most -4.2. In the case of C35U C85A it was -1.42; in that of C35U C85U, -0.375. In the case of C35U C69A G94C U102A A110G it was at most -4.2; in that of C35A U56A C96U A122G, at most -4.2; in that of C35G G80C A122C, at most -4.2. For the variant C35G A115G, the “polymerase ribozyme fitness (log ratio)” value was -3.92. In the case of C35U C79A G81U C93A U102A U127A it was at most -4.2; in that of C35G C93G C96G C123U C129A, at most -4.2; in that of C35U C72U C95U C105A C125A U134G U148C, at most -4.2. As to C35A C75U G84A G124A, the “polymerase ribozyme fitness (log ratio)” value is at most -4.2. Turning to C35U C93A A120C G126A A150U, the “polymerase ribozyme fitness (log ratio)” value is -4. In the case of C35U G50U G59C A60U C85A G94C G141A it was at most -4.2.

Regarding C35U G74A C95U C118A U134G U148A, the “polymerase ribozyme fitness (log ratio)” value is at most -4.2. In the case of C35U A73G it was -0.161; in that of C36A A98U A113U C118U U148A, at most -4.2; in that of C36A A60C G71C C79A G84A A91G C93G, at most -4.2. On to C35G C96U U102G C116U C125U U151G, for which the “polymerase ribozyme fitness (log ratio)” value is at most -4.2. In the case of C35G G50U G58A A66C C103A U104G A137U it was at most -4.2; in that of C35A C85U G126C, at most -4.2. As to C35A U53A U61A G62C A64G A66C C87G G152U, the “polymerase ribozyme fitness (log ratio)” value is at most -4.2. In the case of C35G A39C U82C C116U C125G G133A, the “polymerase ribozyme fitness (log ratio)” value was at most -4.2. In the case of C35U C75A G86A A107G G140U it was at most -4.2; in that of C35G G58C C125U A147C, at most -4.2. Consider C35A C76U G83A A98U C105A G124U C129U, for which the “polymerase ribozyme fitness (log ratio)” value is at most -4.2. As for C35A G58U, the “polymerase ribozyme fitness (log ratio)” value was -2.81. In the case of C35A G42U G128A G141C it was at most -4.2; in that of C36A U109C C118U U134C A142U, at most -4.2. Take C35G C93U G124U G143C: the “polymerase ribozyme fitness (log ratio)” value was at most -4.2. Consider C35U A40C C54A U90C A137G, for which the “polymerase ribozyme fitness (log ratio)” value was at most -4.2.

Turning to C35U C43A C95G U101C, the “polymerase ribozyme fitness (log ratio)” value was at most -4.2. In the case of C35G G84A C96U A107G G140A, the “polymerase ribozyme fitness (log ratio)” value was at most -4.2. As to C36A C75U C95A C129G, the “polymerase ribozyme fitness (log ratio)” value was at most -4.2. Regarding C35U A47U C105G U139A, the “polymerase ribozyme fitness (log ratio)” value was at most -4.2. For C36A C57G U77C A119G the value was at most -4.2. For the variant C35U C36A U55G U127A, the “polymerase ribozyme fitness (log ratio)” value was -3.9.

For the variant C36A A49C U146G, the “polymerase ribozyme fitness (log ratio)” value was at most -4.2. In the case of C35U G88U U90A U101A it was at most -4.2; in that of C35A U55G A73G G81U G86A, at most -4.2.

For C35U A41C U53A C75G C114U G136U, the “polymerase ribozyme fitness (log ratio)” value was at most -4.2.

For the variant C35A U44A C63U G70A G80C C87G, the “polymerase ribozyme fitness (log ratio)” value is at most -4.2. On to C35U G86A C95G C125A, for which the “polymerase ribozyme fitness (log ratio)” value is at most -4.2.

Turning to C35U A52C C76A A120U C125G A137G, the “polymerase ribozyme fitness (log ratio)” value is at most -4.2. In the case of C36A C99A G140C it was at most -4.2. In the case of C36A A40C G94U A107U C116A A122U it was at most -4.2; in that of C35G C87U C118U, -4.18.

Regarding C36G A47G C95G, the “polymerase ribozyme fitness (log ratio)” value is at most -4.2.

Take C35G G88A C95G C123A A138U: the “polymerase ribozyme fitness (log ratio)” value was at most -4.2.

On to C35U A91U U127C A150U, for which the “polymerase ribozyme fitness (log ratio)” value is at most -4.2. On to C35U G83U G94A C96A A106U U139A G140U G152U, for which the “polymerase ribozyme fitness (log ratio)” value is at most -4.2. For C35A C79A G83A C99A, the “polymerase ribozyme fitness (log ratio)” value is at most -4.2.

Consider C35G C38U C85A C99A C103G U127C U135C A147U, for which the “polymerase ribozyme fitness (log ratio)” value was at most -4.2.

With C35G U90C A97G A137C G141A, the “polymerase ribozyme fitness (log ratio)” value was at most -4.2. In the case of C36A A49C C54U G84A C105G C118A U151C it was at most -4.2. In the case of C35G U55G A73C A106U G126C U145C A150G it was at most -4.2; in that of C35G C105U C129A A150C, -4.14. In the case of C35U G58A A91G G133U, the “polymerase ribozyme fitness (log ratio)” value is at most -4.2. For C35A G68A C96G A97G C116U U146G the value was at most -4.2. For C35U A73U G140U U146A the value was at most -4.2; for C35G G65C G84A, at most -4.2. In the case of C35G U78G C99A, the “polymerase ribozyme fitness (log ratio)” value is at most -4.2.

For the variant C36A C63U C69G U135C, the “polymerase ribozyme fitness (log ratio)” value was at most -4.2. In the case of C36A C99A U109C C125U U130A G136A U139G it was at most -4.2; in that of C36A A49C A60C C85G, at most -4.2. Take C35U G48U U56G A60C G74A C96G U104G A107U: the “polymerase ribozyme fitness (log ratio)” value is at most -4.2. With C35A A52G C72G A73U C75U C79A C95G C103G, the “polymerase ribozyme fitness (log ratio)” value is at most -4.2. Take C35A G81U A97U A98U: the “polymerase ribozyme fitness (log ratio)” value was -3.76. For C35U C51U A73U C105U the value was at most -4.2; for C35A G81C G140C U145G, at most -4.2. In the case of C35U A47C C87U U101G A115U A120U it was at most -4.2.

Take C35U A49G G70A C95G C105A: the “polymerase ribozyme fitness (log ratio)” value is at most -4.2. In the case of C36A U55G U56A it was at most -4.2. C35U A106U A142U: the “polymerase ribozyme fitness (log ratio)” value is -4.15. Regarding C36A C75U C95G C103A U145G A150C, the “polymerase ribozyme fitness (log ratio)” value was at most -4.2. In the case of C35G U44A C99A A106G A142U it was at most -4.2. For C35U C85G G88U U134A the value was at most -4.2.

Take C35A C36U U77C A106U A147G: the “polymerase ribozyme fitness (log ratio)” value was at most -4.2.

Turning to C35A G74A U144G C149G, the “polymerase ribozyme fitness (log ratio)” value was at most -4.2. As for C35U G81U U82G G88U G94U U139C C149A, the “polymerase ribozyme fitness (log ratio)” value is at most -4.2. As to C35A A66G G70U C87G C96G A121U C149U, the “polymerase ribozyme fitness (log ratio)” value is at most -4.2.

C36A A98U A107U C131A U146G: the “polymerase ribozyme fitness (log ratio)” value is at most -4.2. For the variant C35G A39U C75G A89U C96U A121C, the “polymerase ribozyme fitness (log ratio)” value was at most -4.2. In the case of C35U U55A C93A C116U G136A C149G, the “polymerase ribozyme fitness (log ratio)” value is at most -4.2.
